In PubChem BioAssay AID485313 (National Center for Advancing Translational Sciences (NCATS), 2010):
Screen size: about 320,000 compounds; about 7,600 (2.4%) were called active. The inconclusive results got no clear call from the source; some entries with a clear call stand among them for comparison. The call rests on the fitted dose curve; in most records, active means well fitted activation curve with a large enough effect; inconclusive means small, poorly fitted or top-dose-only effect; inactive means no such curve, though single readings can be large or run the other way. Where the call is inconclusive, the potency comes from a doubtful curve fit.

experiment: qHTS Assay for NPC1 Promoter Activators; settings: Huh7 NPC1 promoter luciferase reporter, 24 h; series mostly up to 9.22 µM; further: nearly all actives have a fitted effect of over 60% in size;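 on activation: reporter is driven by a mutant NPC1 promoter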
How it was run: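 Cells: Huh7 expressing luciferase under the NPC1 promoter, 1500/well. Seeded 2 h, compound added, incubated 24 h at 37 °C. Luciferase reagent, 10 min ambient, then luminescence.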
Potency means the concentration at half of the fitted maximal effect; tags describe the fitted curve by direction and shape.

Potency, inconclusive:
CCN(CC)c1ccc(NC(=O)c2ccc3c(c2)OCO3)cc1 0.794 µM [activator, full curve], Cc1cccc(/N=C/c2c(O)[nH]c3ccccc23)n1 6.31 µM [activator, single point], COc1cccc2cc(CC(=O)c3ccc(C)cc3C)c(=O)oc12 3.16 µM [activator, partial curve], O=C1c2ccccc2S(=O)(=O)N1Cc1nc2ccccc2s1 0.1 µM [activator, full curve], COc1ccc(CN=C(C)c2c(C(F)(F)F)[nH]n(-c3nc4ccccc4s3)c2=O)cc1 2 µM [activator, partial curve], O=C(OCc1csc(-c2ccccc2)n1)c1cccs1 2 µM [activator, partial curve], Nc1nnc(SCc2cn3cc(Cl)ccc3n2)s1 3.55 µM [activator, partial curve], COC(=O)c1sc(NC(=O)c2oc3ccccc3c2C)nc1C 2.24 µM [activator, partial curve], Nc1c(C(=O)c2cccs2)sc2nsc(SCCN3CCCCC3)c12 6.31 µM [activator, single point], c1ccn2cc(-c3ccc4c(c3)OCCO4)nc2c1 0.708 µM [activator, partial curve, poor fit], CC1CCCN(c2nc3ccsc3c(=O)s2)C1 (stereo unspecified) 3.55 µM [activator, partial curve], CCN(CC)c1ccc(/C=C2\SC(N)=NC2=O)cc1 3.16 µM [activator, partial curve], O=C(Cc1ccc(Br)cc1)Nc1ncc([N+](=O)[O-])s1 3.16 µM [activator, single point], COc1ccc2cc(-c3ccon3)ccc2c1 5.62 µM [activator, single point], O=C(Nc1nc2c(s1)CN(Cc1ccccc1)CC2)C1CCC1 3.98 µM [activator, partial curve], O=C(CSc1nnc(NC(=O)c2ccccc2F)s1)NC1CCCC1 5.62 µM [activator, single point], COc1ccc(OC(=O)c2c(C)nn(-c3ccccc3)c2C)cc1 3.55 µM [activator, single point], NC(=O)c1c(NC(=O)c2ccc(F)cc2Cl)sc2c1CCC2 3.98 µM [activator, single point], Cc1c2ccccc2nc2c(F)c(NC(C)C)c(F)c(F)c12 5.62 µM [activator, single point], CN1OC(COC(=O)c2ccccc2)CC1c1ccccc1 (stereo unspecified) 3.16 µM [activator, single point], CCn1nc(C)c(/C=N/NC(=O)Cc2ccc(Cl)cc2)c1C 2.51 µM [activator, partial curve], COc1ncnc2sc(-c3ccccc3)cc12 5.01 µM [activator, single point], O=C(Nc1nnc(-c2ccccc2Cl)o1)c1cccnc1 3.55 µM [activator, single point], CCn1ncc(Br)c1C(=O)Nc1ccc(C(C)C)cc1 3.98 µM [activator, partial curve], CN(C)c1ccc(/C=N/NC(=O)c2sccc2-n2cccc2)cc1 3.55 µM [activator, partial curve], COc1ccc(NC(=S)NC(=O)C2CCC2)cc1 2.51 µM [activator, partial curve], Cc1ccc(NC(=O)OCc2cncs2)cc1 3.55 µM [activator, partial curve], COc1ccccc1/C=N\N=C(\N)c1ccccn1 2.51 µM [activator, partial curve], COc1cccc(/C=N/NC(=O)c2cnn(-c3ccccc3)c2N)c1 2.82 µM [activator, partial curve], O=C(Nc1ccccc1C(=O)N/N=C/c1ccc(O)cc1)c1ccccc1 2.24 µM [activator, partial curve], COCCn1c(SCc2nc3ccccc3s2)nc2ccccc21 3.55 µM [activator, partial curve], Cc1cccc(N=C2NN=C(c3ccccc3F)CS2)c1C 3.16 µM [activator, single point], O=C(CSc1cccs1)Nc1cccc2ccccc12 3.98 µM [activator, single point], Cn1/c(=N/N=C/c2ccc(Cl)c([N+](=O)[O-])c2)sc2ccccc21 3.16 µM [activator, partial curve], O=C(CSc1nnc(-c2ccc3c(c2)OCCO3)o1)N1CCCC1 1 µM [activator, partial curve], CCOC(=O)COc1ccccc1C(=O)c1cnn(-c2ccccc2)c1 6.31 µM [activator, single point], O=c1c2ccccc2nnn1COc1cccc2ccccc12 3.16 µM [activator, partial curve], O=C(OCC(=O)N1CCCCCC1)c1cccs1 3.98 µM [activator, partial curve], COc1cccc(Nc2nc(-c3cccnc3)cs2)c1 3.55 µM [activator, single point], O=c1[nH]c(N/N=C\c2ccc(F)cc2)nc2ccccc12 3.55 µM [activator, single point], c1ccc(OCCCc2nc(-c3ccccn3)no2)cc1 3.16 µM [activator, partial curve], CCCNc1ccc(C(=O)OCC)cc1[N+](=O)[O-] 6.31 µM [activator, single point]

Potency, active:
Fc1cccc(/C=N/Nc2cc(N3CCOCC3)ncn2)c1 1.78 µM, CC(=O)Oc1ccc(C)cc1-n1nc2ccccc2n1 2.82 µM, Cn1c(N=NC(=O)c2ccccc2)c(O)c2ccccc21 0.708 µM, COc1cccc(-n2cc(-c3ccc(F)cc3)[nH]c2=S)c1 1.58 µM, CCC(=O)C1CCCN(C(=O)c2ccc3nc(-c4cccc(OC)c4)oc3c2)C1 (stereo unspecified) 1.41 µM, O=C(Nc1nnc(C2CC2)s1)C1COc2ccccc2O1 (stereo unspecified) 2.82 µM, CCCc1ccc(-c2cc(C(=O)NC3=NCCS3)c3ccccc3n2)cc1 1.12 µM, COc1ccc(-c2cn3ccccc3n2)cc1OC 3.16 µM, Cc1ccc(OCc2cc(C(=O)N3CC4C[C@@H]5CC3C[C@H](C4)C5)no2)cc1C 3.55 µM, CN(CCO)c1c2c(nc3cc(-c4cccc(F)c4)nn13)CCCC2 3.55 µM

Potency, inactive:
CCOC(=O)Cc1csc(NC(=O)Cc2ccc(C)cc2)n1, CCCC(=O)Nc1ccc(Cl)c(NC(=O)c2cccc(OC)c2)c1, CNC(=O)c1ccsc1NC(=O)c1ccc2c(c1)CCCC2, COc1cc(/C=C(\C#N)C(=O)Nc2cccc(C(=O)O)c2)ccc1OCc1ccc(Cl)cc1, COc1ccc(NC(=O)C(=O)NCC(c2ccco2)N2CCc3ccccc3C2)cc1OC (stereo unspecified), O=C(O)/C=C/C(=O)NC1CCC(CC2CCC(NC(=O)/C=C/C(=O)O)CC2)CC1 (stereo unspecified), CC1(C)CC(NC(=O)c2cc(Cl)ccc2Cl)CC(C)(C)N1, COc1ccc(S(=O)(=O)NC2CCCC2)c(Cl)c1Cl, COc1cc(-c2nnc(SCc3c(F)cccc3Cl)o2)cc(OC)c1OC, Cn1c(NC(=O)CC(C)(C)C)cc(=O)n(C)c1=O, CC(C)c1ccc(OCC(=O)NCc2ccccc2)cc1, CSc1ccccc1OCc1cc(C(=O)NC2CCc3ccccc32)no1 (stereo unspecified), CCCC(=O)NC(c1ccc(OC)cc1)c1ccc2cccnc2c1O (stereo unspecified), CC1(C)N=C(N)N=C(N)N1c1ccc(Oc2ccc(Cl)cc2)c(Cl)c1, Cc1cccc(NC(=S)NCCc2ccc3c(c2)OCCO3)c1C, O=S(=O)(N/N=C\C=C\c1ccccc1)c1ccc(Br)cc1, CC(C)CCN1C(=O)C2(OCCCO2)c2cc(Cl)ccc21, Cc1ccc(C(=O)NNC(=O)c2ccc(S(=O)(=O)N(C)c3ccccc3)cc2)cc1, O=C(CCNC(=O)c1ccccc1Cl)NCc1ccco1, CCOC(=O)c1cnc(SC)nc1Oc1cccc(NS(=O)(=O)c2ccc(Cl)cc2)c1, CCOC(=O)CSc1nc(N2CCOCC2)c2c(c1C#N)CC(C)(C)OC2, O=C(CCCOc1ccc(Cl)cc1)N1CCOCC1, O=C(Nc1ccc(Br)cc1)C1CCN(c2cnccn2)CC1, O=C(c1cc(-c2ccccc2)on1)N1CCN(c2ccccc2)CC1, COc1ccccc1-c1ccc(SCc2cccc(F)c2)nn1, COC(=O)c1sccc1NC(=O)c1ccc2c(c1)OCO2, COc1cccc2[nH]c3ccccc3c(=O)c12, CC(C)C[C@H](NC(=O)N1CC(=O)Nc2ccccc21)C(=O)N1CCC[C@H]1C(=O)O, COc1cc(CCC(=O)NCc2ccc(F)cc2)cc(OC)c1OC
